# From PubChem BioAssay AID881 (National Center for Advancing Translational Sciences (NCATS), 2007)
# Out of some 110,000 compounds screened, about 610 (0.55%) were called active. This list was built around the results that the source calls inconclusive (neither active nor inactive); the mix of calls is not that of the screen. Calls follow the shape of the dose curve; as a rule, active = well fitted inhibition curve with a large enough effect; inconclusive = small, poorly fitted or top-dose-only effect; inactive = no such curve, though single readings can be large or run the other way. A potency beside an inconclusive call is a rough fit, not a confirmed value.
# Molecular target: Polyunsaturated fatty acid lipoxygenase ALOX15B (Homo sapiens) (UniProt O15296)
# Chain of UniProt O15296 (O15296 whole entry, looked up): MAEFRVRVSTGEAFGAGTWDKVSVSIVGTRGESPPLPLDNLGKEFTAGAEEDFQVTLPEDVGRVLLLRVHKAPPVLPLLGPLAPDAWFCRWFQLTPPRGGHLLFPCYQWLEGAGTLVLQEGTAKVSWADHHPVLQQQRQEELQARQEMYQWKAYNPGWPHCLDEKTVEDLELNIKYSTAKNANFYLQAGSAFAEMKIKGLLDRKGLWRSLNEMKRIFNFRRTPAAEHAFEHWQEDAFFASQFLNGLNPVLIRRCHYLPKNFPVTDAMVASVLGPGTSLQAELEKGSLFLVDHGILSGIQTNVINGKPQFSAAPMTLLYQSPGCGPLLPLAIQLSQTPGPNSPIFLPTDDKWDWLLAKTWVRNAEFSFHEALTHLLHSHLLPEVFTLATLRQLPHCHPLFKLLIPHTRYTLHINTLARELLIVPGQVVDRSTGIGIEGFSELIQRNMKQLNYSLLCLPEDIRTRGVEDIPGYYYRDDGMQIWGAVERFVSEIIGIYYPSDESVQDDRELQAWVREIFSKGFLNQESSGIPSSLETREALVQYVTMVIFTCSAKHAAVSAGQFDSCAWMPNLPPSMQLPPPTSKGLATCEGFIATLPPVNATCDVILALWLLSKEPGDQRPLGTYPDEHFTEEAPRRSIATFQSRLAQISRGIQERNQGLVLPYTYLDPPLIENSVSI
# Assay: qHTS Assay for Inhibitors of 15-hLO-2 (15-human lipoxygenase 2); also: nearly all actives have a fitted effect of over 60% in size
# Conditions: purified 15hLO-2, xylenol orange hydroperoxide absorbance; activity change, negative = inhibition: at 57.1 µM (top of the series) unless noted
# Method in brief: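 Enzyme 50 nM, AA 45 uM, 25 mM Hepes pH 7.5 + 0.01% Triton X-100; cpd preinc 15 min RT, rxn 90 min RT; stop/detect with 200 uM XO + 300 uM Fe(II) in 50 mM H2SO4, 30 min; A573/A405.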
# % is scaled to controls: 0 for no effect and ±100 for the full control effect; potency is read from the fitted curve at half-maximal effect; tags tell the direction and shape of the fitted curve.
SMILES,Potency,"activity change, negative = inhibition"
CC(C)(C)C1CCC2(CC1)Nc1cccc3cccc(c13)N2,"inconclusive: 1.58 µM [inhibitor, partial curve]",
Cc1noc(NS(=O)(=O)c2ccc(N/C=C\C(=O)c3ccncc3)cc2)c1C,"inconclusive: 31.6 µM [inhibitor, single point]",
CN1CCc2c(c3ccccc3n2C)C1,"inconclusive: 0.199 µM [inhibitor, full curve]",
COc1ccc(C)cc1Cn1c(S(C)(=O)=O)nc2ccccc21,"inconclusive: 6.31 µM [inhibitor, single point]",
CCCc1nnc(N2C(=O)c3cccc4cccc(c34)C2=O)s1,,inactive: -2.47%
COc1ccc(OCCNC(=S)Nc2cccc3ccccc23)cc1,"inconclusive: 15.8 µM [inhibitor, single point]",
CCc1ccc(C2NC(C(=O)O)CS2)cc1 (stereo unspecified),"inconclusive: 39.8 µM [inhibitor, single point]",
Cc1ccc(S(=O)(=O)Nc2nc(C)c(NC(=O)Nc3ccc(Cl)cc3Cl)s2)cc1,"inconclusive: 10 µM [inhibitor, partial curve]",
COC(=O)C1=NN(C(=O)c2ccccc2)C(C)(O)C1 (stereo unspecified),,inactive: 4.12%
COc1ccc(OC)c(C2CC(=O)N3CN(c4ccccc4F)CSC3=C2C#N)c1 (stereo unspecified),active: 31.6 µM,
O=C(c1ccccc1)c1ccc(OCC(O)CN2CCN(S(=O)(=O)N3CCCCC3)CC2)cc1 (stereo unspecified),,inactive: 27%
COC(=O)N1CCC2(CCCN(Cc3cc(C(F)(F)F)cc(C(F)(F)F)c3)C2)CC1,"inconclusive: 6.31 µM [inhibitor, single point]",
COc1cc2cc(C(c3nnnn3C3CCCCC3)N(C)C3CCCCC3)c(=O)[nH]c2cc1OC (stereo unspecified),,inactive: 14.5%
COc1ccc(C2NC3=C(CCCC3)C(C#N)(C#N)C2(C#N)C#N)cc1 (stereo unspecified),"inconclusive: 10 µM [inhibitor, partial curve]",
Cc1ccc(NC(=S)NNC(=S)NCc2ccccc2)cc1,"inconclusive: 12.6 µM [inhibitor, partial curve]",
O=C(Nc1nc(-c2ccccc2)cs1)c1ccc(Br)o1,"inconclusive: 0.251 µM [inhibitor, full curve, poor fit]",
CCN(CC)C(=O)c1sc(NC(=O)c2ccoc2C)c(C(=O)OC)c1C,,inactive: -25.1%
COC(=O)/C=C\c1cc(O)ccc1O,"inconclusive: 12.6 µM [inhibitor, partial curve, poor fit]",
CN1CCN(c2ncnc3ccc(-c4cccc(NS(C)(=O)=O)c4)cc23)CC1,,inactive: 23.7%
CC(C)(C)c1ccc(OCC(=O)O)c(Cl)c1,,inactive: -2.87% [at 11.4 µM]
CC1CCCN(c2nc3ccccc3nc2C(C#N)S(=O)(=O)c2ccccc2)C1 (stereo unspecified),"inconclusive: 12.6 µM [inhibitor, partial curve]",
CCCCCCS(=O)[C@H]1CS(=O)(=O)C[C@@H]1S(=O)CCCCCC (stereo partly specified),"inconclusive: 3.98 µM [inhibitor, full curve]",
Cc1nc(N2CCOCC2)c2nc(-c3ccccc3)n(CC3CCN(C)CC3)c2n1,,inactive: 17.7%

SMILES,Potency,"activity change, negative = inhibition"
CCCCn1c(C)cc2cc(O)ccc21,"inconclusive: 15.8 µM [inhibitor, partial curve]",
COc1ccc(O)c(/C=N/c2sc(C)c(C)c2C#N)c1,,inactive: -10.1%
CN(C)c1ccc(N=Cc2nc(-c3ccccc3)oc2O)cc1,"inconclusive: 25.1 µM [inhibitor, partial curve]",
COc1ccc(-n2c(N)c(C(=O)NCc3ccco3)c3nc4ccccc4nc32)cc1,"inconclusive: 15.8 µM [inhibitor, partial curve]",
CCOc1ccc(N(CC(=O)N/N=C/c2cc([N+](=O)[O-])ccc2Cl)S(C)(=O)=O)cc1,,inactive: -5.17%
COc1ccc(C(=O)NC(=S)NCc2ccco2)cc1OC,"inconclusive: 25.1 µM [inhibitor, partial curve]",
N#Cc1c(-c2ccc(Cl)cc2Cl)nc2n(c1=O)CCS2,"inconclusive: 20 µM [inhibitor, single point]",
COC(=O)c1ccc(CSc2n[nH]c(=S)s2)o1,"inconclusive: 25.1 µM [inhibitor, single point]",
CSc1ccccc1NC(=O)c1cc(C(C)C)on1,"inconclusive: 31.6 µM [inhibitor, single point]",
Cc1nc(N2CCOCC2)c2nc(-c3ccccc3)n(CC(C)(C)CN(C)C)c2n1,,inactive: 20%
C=CCSC1=N/C(=C\C=C\c2ccco2)C(=O)S1,"inconclusive: 20 µM [inhibitor, partial curve]",
O=C1C(Cl)=C(NC2CCc3ccccc32)C(=O)c2ncccc21 (stereo unspecified),"inconclusive: 15.8 µM [inhibitor, partial curve]",
Cc1ccc(NC(=O)/C(=C\c2ccc3c(c2)OCO3)NC(=O)c2ccco2)cc1,"inconclusive: 0.158 µM [inhibitor, full curve]",
C=CCSc1nc(-c2ccc3c(c2)OCO3)cc(C(F)(F)F)c1C#N,,inactive: -15.2%
CCN1C(=S)SC(=O)C1=C1C=C(C)N(CCOC)C(C)=C1,"inconclusive: 12.6 µM [inhibitor, partial curve]",
O=C(OCc1nnc(-c2ccc(Cl)cc2)o1)c1ccncc1,,inactive: -10.1%
c1ccc(-c2csc(N3CCc4ccccc4C3)n2)cc1,"inconclusive: 25.1 µM [inhibitor, partial curve, poor fit]",
Cc1c(NC(=S)/C=C2\N(C)c3ccccc3C2(C)C)c(=O)n(-c2ccccc2)n1C,"inconclusive: 3.98 µM [inhibitor, partial curve]",
O=S(=O)(Cc1ccccc1)N1CCN(c2ccccc2)CC1,"inconclusive: 6.31 µM [inhibitor, full curve, poor fit]",
CN1CCc2c(cc(O)c(O)c2Cl)[C@H](c2cccc(Cl)c2)C1,"inconclusive: 25.1 µM [inhibitor, single point]",
CC1CC(C)CN(CCC(=O)Nc2cccc(Cl)c2)C1 (stereo unspecified),,inactive: 47.8%
O=C(NO)c1ccc(C(=O)N(C2CCCCC2)C2CCCCC2)cc1,"inconclusive: 31.6 µM [inhibitor, single point]",
COc1ccc(OCC(=O)NC(=S)N2CCCc3ccccc32)cc1,"inconclusive: 15.8 µM [inhibitor, partial curve]",
